Among the data in PubChem BioAssay (NCI) are growth values, retold here.

Where a structure was tested more than once in an assay, its records may differ in their call.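 Compound tested at a single concentration for 48 hours in 96-well plates; a percent growth value below 10 was scored as active.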 A number of entries come with more than one value. The list is limited to them. The source may hold further records. The screen tested this drug many times, at the concentration stated with the values; one value stands for one run. Marks such as (2×) stand for listed records that agree.

One assay has as its system CCRF-CEM leukemia. The assay can be described thus: NCI-60 one-dose screen, 48 h (100 = growth as untreated, 0 = no growth, -100 = all killed). Conditions: 2.5 mM.
The next assay concerns MOLT-4 leukemia. The description is as above. As to conditions: 2.5 mM.

In the case of `O=c1[nH]cc(F)c(=O)[nH]1`, the growth result in the assay on CCRF-CEM leukemia (runs of 1992) was “inactive: 27.7 (2×), 20.4, 25.1, 38.4, 23.1, 11.6, 21.3 (2×), 13.7, 22.7 (2×), 15.2, 16.6, 21, 34.9, 11.3, 21.4, 26.3, 25.6, 50.8, 25.7 (2×), 42.4, 23.4, 15.7 (2×), 21.8 (3×), 13.2, 26.1, 10.9, 29.4, 39.5, 25.4 (2×), 53.7, 22.1 (2×), 19.5 (3×), 17.3 (2×), 18.5, 30.4, 27.6, 16.8, 32.8, 34.7, 19.9 (2×), 21.7, 22.9, 26.5, 30.5 (2×), 16.5, 16.9 (3×), 22.3, 15.4, 15.3, 20.7 (2×), 18.3 (2×), 19.1 (2×), 17.5, 11.7, 23.2, 12.5, 12.6, 12.9, 15, 29.7, 19.6 (2×), 37.6, 12, 11.5, 20.8, 35.3, 24.6, 20, 22.5 (3×), 25.8, 16.1, 22.8, 57.3, 16.2, 22.4, 23.8, 15.1, 19.2 (2×), 23.3, 19.8, 73.4, 33.4, 20.2, 22.2, 28.8, 23.7, 37.3, 23% and active: 7, -19.9, -2.73, 1.99, -10.9, -32.8, 9.57, 7.06, -10.8, 3.74, -72.4%”; in the assay on CCRF-CEM leukemia (runs of 1993) it was “inactive: 20.8 (2×), 23.6, 12.1, 57.3, 25.3, 27.4, 26.6, 35.1, 10.7, 16, 15, 19.7, 20.5, 13.3, 17.2, 11.6, 21 (2×), 14, 22.1, 19.1, 16.2, 10.1, 25.4 (2×), 15.2, 51.8, 26.7, 18.8, 11.8, 21.1, 27.1, 27.7, 27, 23.4, 21.5, 17.3, 16.8, 64.4% and active: 0.0802, 6.28, -9.26, 2.67, 7.47, 9.17, 3.32%”; in the assay on CCRF-CEM leukemia (runs of 1994), “inactive: 27.3, 31.2, 28.8, 57.5, 35.8, 19.9, 31.8, 17.3, 51, 22.4 (2×), 21.4, 16.3, 13.5, 15.2, 11.5, 53.7, 27.8, 24.2, 19.4, 16.6, 23.8 (2×), 33.6, 11.9% and active: 9.82, -8.45, -18.3, 1.45, 7.04, -16.7%”; in the assay with CCRF-CEM leukemia (runs of 1995), “inactive: 18.6 (2×), 28.2, 31.5, 12.7, 27.7, 11.6, 27.2, 22.8, 20.7, 27.5, 27.9, 20.9, 15, 18.3, 11.4, 26, 18.7, 32, 15.6, 34.4, 21.5, 11.5% and active: -17.8, 5.75, -16.4, 4.82, -1.4, 0.246, 6.24, -18.1, 6.98, -20.9, 8.52, 4.28, -23.2, -10.2%”; in the assay with CCRF-CEM leukemia (runs of 1996), “inactive: 13.5, 37, 15.1, 17.8 (2×), 14.4, 76.9, 30.6, 17, 15.4, 60.6, 27.2, 18.2, 18.9, 13.2, 20.2, 16.4, 12.1, 30.1, 41.7, 19, 24.2, 33.5, 29.5, 21.4, 13.8, 39.7, 19.6, 25, 16.9, 12.9, 18, 19.9% and active: 3.57, -12.1, -18 (2×), 4.93, 8.6, 9.71, 5.71, -25.9, 7.45, 9.01, -18.9, -9.44, -3.37, 7.93, -27.9, 2.61, -31.2%”; in the assay on CCRF-CEM leukemia (runs of 1997), “inactive: 22.3, 12.6, 10.2, 14.9 (2×), 29.5, 28, 16.7, 16.8, 27, 26.5, 34.5, 31.6, 21, 45.8, 33.9, 100, 40.7, 60, 39.3, 12.9, 32.8, 93.3, 111, 16.1% and active: 5.66, 5.01, -52.9, 8.81, -25.9, -34.4, 9.98, 8.29, -3.64, -23.9, -33.5%”. Further, the growth result was “inactive: 36.6, 13.3, 62.9, 68.9, 51.8, 14.6, 27.5, 34.4, 33.1, 23.4, 46.6, 49.2, 45.5, 32.1, 39.5, 20.2, 19.3% and active: -48.2, 5.05, -1.44, 8.58%” in the assay on CCRF-CEM leukemia (runs of 1998); “inactive: 40.6, 43.9, 17.6, 12.7, 25.3% and active: 5.09, 2.33, -7.29, -76.7, 5.13, 2.16, -40.8%” in the assay on CCRF-CEM leukemia (runs of 1999); “active: 5.34, -69, 8.9, -44.4%” with CCRF-CEM leukemia (runs of 2000); “inactive: 13.8, 18.9, 17.9, 28.1, 15.7, 22.1, 19, 10.9, 22.2, 24, 33.8% and active: 8.02, 8.92, 4.31, 7.66, -11.7, 5.97, 6.82, 5.34%” with MOLT-4 leukemia (runs of 1991); “inactive: 27.6, 54, 13.6, 11.4 (2×), 36.7, 15, 50.2, 75.2, 16.3, 14.6, 17.8, 15.9, 15.4, 26, 13.8 (3×), 13.7 (2×), 13, 22.2, 16.9, 11, 10.5, 12.4, 16.5, 11.6, 23.7, 12.1 (2×), 10, 12.2, 12.5, 15.5, 14.1, 11.1, 19.3, 17.6, 10.7, 25.1, 15.7, 10.4, 40.5% and active: 9.9, 5.64, -4, 7.9, -20.3, -18.6, 0.135, 8.27, -27, -28.3, -22, -9.47, 6.48, 8.02, 5.2, 7.16, 8.81, 8.13, 5.08, 8.34, 5.91, 6.8, 4.94, 6.91, 6.82, -20.7, 0.316, 3.66, 6.24, 4.41, 4.82 (2×), -5.5, 5.61, 7.81, 2.99, 5.21, 1.52, -0.904, 7.42, -5.31, -12.1, 6.63, 4.97, -12.9, 2.22, -2.75, -13.1, 3.98, 4.96, 3.87, 0.266, 2.97, 5.85, 3.23, 7.33, 9.87, -2.76, -4.9, 6.35, 2.83, -2.65, -6.41, -15.8, -9.1, 7.43, 2.19, 9.72, 7.07, -5.75, 4.79, 8.35, 0.959, 1.25%” in the assay on MOLT-4 leukemia (runs of 1992); “active: 6.99, 8.58, 5.29, 4.26, -6.78, 9.83, 6.96, 2.63, -15.9, -0.625, 2.47, -3.65, 6.32, -18.6, 2.98, 2.13, -14.7, 1.03, 5.52, 2.54, 3.03, -3.03, 4.55, 2.73, 3.21, -4.53, 2.3, -10.1, -45.6, 7.07, 0.427% and inactive: 47, 57.5, 22.6, 10.1, 28.4, 12.5, 32.7, 40.3, 11.7, 15, 58.6, 12.1, 94.4, 14.1, 64.2, 13.5, 22.2, 11.6, 14.3%” in the assay with MOLT-4 leukemia (runs of 1993). Further, the growth result with MOLT-4 leukemia (runs of 1994) is “active: 4.41, -12.9, -22.2, -25.5, 4.5, 3.36, -5.21, 5.63, -13.1, -16.3, 1.28, -0.655, 3.29, -7.31, 8.95, -13.4, -11.7, 6.43, -16.9% and inactive: 41.6, 15.5, 33.1, 18.1 (2×), 15.2, 26.8, 71.4, 19.1, 15.8, 18, 14.1, 27.4, 16.4, 43.2%”; in the assay on MOLT-4 leukemia (runs of 1995), “active: 9.56, 7.9, -4.48, 9.52, 5.38, -10.4, 6.06, -0.178, 3.84, -16, 4.65, 7.06, 2.52, 8.04, 5.98, -8.87, -12.5, 0.428, -7.92, -27.9, 2.56, -6.97, -20.8, -37.9, -7.14% and inactive: 23.3, 19.7, 12.6, 14.7, 24.7, 25.3, 10.9, 11.3, 46.4, 31.5, 14.9, 14, 20.2, 10.1%”; in the assay with MOLT-4 leukemia (runs of 1996), “active: 4.99, -18.8, -15, -0.277, 0.163, -30.2, 2.04, -34.8, -4.76, 1.21, -33.4, -25.4, -26.8, -51.4, -38.2, 4.71, -15.8, -12.3, -0.156, -25.6, -44.2, -32.3, -57.3 (2×), -20.8, -7.34, 7.47, -15.5, -3.53, -14.9, -35.9, -13.6, -2.13, 1.88, -6.59, 7.66, 3.13, -9.31, -32.2, 4.58% and inactive: 18, 26.3, 40.9, 14.9, 37.5, 12.2, 12.1, 10.5, 14.2, 27.7, 10.7, 15, 18.5%”.
